Measured values reported in the supplement of paper PMC6828730.
Where “and” joins values, the source holds several entries; their conditions need not be identical. Equal values may be shown once. Where a name gives a salt, the structure may show the parent alone. Some of the results follow. Many values rest on one well or one pass, so single values are uncertain.

Each compound was assayed on hiPSC-derived cardiomyocytes (assay: time to death of most cells in well after compound addition (days); higher = less cardiotoxic). Conditions: screen: 1; 10 µM.

| SMILES | time to death of most cells in well |
| --- | --- |
| COc1cc2nccc(Oc3ccc(NC(=O)C4(C(=O)Nc5ccc(F)cc5)CC4)cc3)c2cc1OC | 6 |
| COCCOc1ccc2c(c1)ncn2-c1ccc2cccc(N3CCC(N)CC3)c2n1 | > 7 |
| Cc1cnc(Nc2ccc(F)cc2Cl)nc1-c1c[nH]c(C(=O)NC(CO)c2cccc(Cl)c2)c1 (stereo not given) | 3 |
| Cc1[nH]c(/C=C2\C(=O)Nc3ccc(S(=O)(=O)Cc4c(Cl)cccc4Cl)cc32)c(C)c1C(=O)N1CCC[C@@H]1CN1CCCC1 | 3 |
| OC(c1cc(-c2ccc(Cl)cc2)nc2ccccc12)C1CCCCN1 (stereo not given) [Vacquinol-1] | 2.5 |
| Nc1nc(N)c(N=O)c(OCC2CCCCC2)n1 | > 7 |
| CCCNC(=O)Nc1ccc(Oc2ncnc3cc(OC)c(OC)cc23)cc1Cl | > 7 |
| Cc1cnc(-c2cnc(NCCNc3ccc(C#N)cn3)nc2-c2ccc(Cl)cc2Cl)[nH]1 | 2.5 and 3 |
| COc1cc2c(Oc3ccc(NC(=O)C4(C(=O)Nc5ccc(F)cc5)CC4)cc3F)ccnc2cc1OCCCN1CCOCC1 | 4 |
| CC(C)CCN1c2nc(Nc3cc(F)c(O)c(F)c3)ncc2N(C)C(=O)C1C (stereo not given) | > 7 |
| COc1cc(Nc2ncc3c(n2)-c2ccc(Cl)cc2C(c2c(F)cccc2OC)=NC3)ccc1C(=O)O [Alisertib (MLN8237)] | > 7 |
| COc1ccc2c(Oc3ccc(NC(=O)c4c(C)n(CC(C)(C)O)n(-c5ccccc5)c4=O)nc3)ccnc2c1 | > 7 |
| CC[C@H](Nc1ncnc2[nH]cnc12)c1nc2cccc(F)c2c(=O)n1-c1ccccc1 [Idelalisib (CAL-101, GS-1101)] | > 7 |
| CCCS(=O)(=O)Nc1ccc(F)c(C(=O)c2c[nH]c3ncc(Cl)cc23)c1F | 3 |
| O=C(c1ccc(Nc2nccc(-c3cc4ccccc4s3)n2)cc1)N1CCC(N2CCCC2)CC1 [IKK-16 (IKK Inhibitor VII)] | 0.5 |
| C=CC(=O)N1CCCC(n2c(=O)n(-c3ccc(Oc4ccccc4)cc3)c3c(N)ncnc32)C1 (stereo not given) [ONO-4059 analogue] | 5 |
| N#Cc1c(Oc2ccc(F)c(NC(=O)Cc3cccc(C(F)(F)F)c3)c2)ccc2nc(NC(=O)C3CC3)sc12 | 2 |
| CN(c1ccccc1CNc1nc(Nc2ccc3c(c2)CC(=O)N3)ncc1C(F)(F)F)S(C)(=O)=O | > 7 |

| SMILES | time to death of most cells in well |
| --- | --- |
| N#Cc1ccc2[nH]c(O)c(-c3ccc(CN4CCOCC4)cn3)c2c1 | > 7 |
| Cc1[nH]c2ccccc2c1C1=C(NCCc2ccc(F)cc2)C(=O)N(C)C1=O | 6.5 |
| NC[C@@](O)(c1ccc(Cl)cc1)c1ccc(-c2cn[nH]c2)cc1 | 1 |
| NC1(Cc2ccc(Cl)cc2)CCN(c2ncnc3[nH]ccc23)CC1 | 3 |
| Nc1ncnc2c1c(-c1cccc(OCc3ccccc3)c1)cn2C1CC(CN2CCC2)C1 (stereo not given) | 5 |
| CC(C)N(CCC(=O)c1ccc2ccccc2c1)Cc1ccccc1 | 6.5 |
| O=c1ccc2ccc(O)c(O)c2o1 [Daphnetin] | 4 |
| CN1CC[C@H](c2c(O)cc(O)c3c(=O)cc(-c4ccccc4Cl)oc23)[C@H](O)C1 [Flavopiridol HCl] | 5.5 |
| Cn1sc(=O)n(Cc2ccccc2)c1=O | 0 |
| O=c1c(-c2ccc(O)cc2)coc2cc(O)cc(O)c12 [Genistein] | > 7 |
| O=C(Nc1c[nH]nc1-c1nc2ccc(CN3CCOCC3)cc2[nH]1)NC1CC1 | 4.5 |
| CO[C@H]1C[C@@H]2CC[C@@H](C)[C@@](O)(O2)C(=O)C(=O)N2CCCC[C@H]2C(=O)O[C@H]([C@H](C)C[C@@H]2CC[C@@H](OP(C)(C)=O)[C@H](OC)C2)CC(=O)[C@H](C)/C=C(\C)[C@@H](O)[C@@H](OC)C(=O)[C@H](C)C[C@H](C)/C=C/C=C/C=C/1C [Ridaforolimus (Deforolimus, MK-8669)] | 5.5 |
| CNCc1ccc(-c2cc(-c3nc(-c4ccc(S(=O)(=O)C(C)C)cc4)cnc3N)on2)cc1 | 3 |
| Nc1ccc(C(=O)Nc2cccc(-c3nc(N4CCOCC4)c4oc5ncccc5c4n3)c2)cn1 | > 7 |
| NC(=O)c1ccc(N(C(N)=O)c2c(F)cccc2F)nc1-c1ccc(F)cc1F | 2 |
| COc1cc(CCc2cc(NC(=O)c3ccc(N4CC(C)NC(C)C4)cc3)n[nH]2)cc(OC)c1 (stereo not given) | > 7 |
| C=CC(=O)Nc1cc(Nc2nccc(-c3cn(C)c4ccccc34)n2)c(OC)cc1N(C)CCN(C)C [Osimertinib (AZD9291)] | 2.5 |
